The nature of the data set: physchem. The conditions noted are these: HPLC gradient method, acetonitrile/0.1% aqueous phosphoric acid.
[1] abbreviates: logP, single value printed for the substance.
Where [2] appears, read: logP, E isomer of the isomer mixture, value assigned by printed order of the isomer column.
Where [3] appears, read: logP, Z isomer of the isomer mixture, value assigned by printed order of the isomer column.
The mark [4] stands for this setting: single value printed for the substance.

`COc1cc(CCNC(=O)OC(C)(C)C)ccc1O` [IV*−1, tert-butyl 4-hydroxy-3-methoxyphenethylcarbamate] had a chromatographic logP under setting [1] of 2.09.
On the same count and under the same terms, as for `CCCCOc1ccc(CCNC(=O)/C(=N\OC)c2ccc3c(c2)CCCC3)cc1OC` [Example 48], the figure is 4.68.
Consider `CO/N=C(\C(=O)NCCc1ccc(OC(C)C)c(OC)c1)c1ccc2c(c1)CCCC2` [Example 61], for which the chromatographic logP under setting [2] is 3.89 and the chromatographic logP under setting [3] is 4.18.
Take `CO/N=C(\C(=O)NCCc1ccc(OC(C)C)c(OC)c1)c1ccc2c(c1)CCCC2` [Example 62]: the chromatographic logP under setting [1] came out at 3.89.
Still for that read-out and setting: as for `CCOc1cc(CCNC(=O)/C(=N\OC)c2ccc3c(c2)CCCC3)ccc1OC` [Example 100], the figure is 3.49.
The compound `CO/N=C(\C(=O)NCCc1ccc(OCC(C)C)c(OC)c1)c1ccc2c(c1)CCCC2` [Example 46] returned a logP under setting [4] of 4.45.
Take `CON=C(C(=O)NCCc1ccc(OCC#N)c(OC)c1)c1ccc2c(c1)CCCC2` [Example 1, N-[4-(cyanomethoxy)-3-methoxyphenethyl]-2-(methoxyimino)-2-(5,6,7,8-tetrahydro-2-naphthyl)acetamide]: the chromatographic logP came out at 3.16 (log P, Isomer A, Isomer A of the mixture of isomers) and 3.41 (log P, Isomer B, Isomer B of the mixture of isomers).
For `COc1cc(CCN)ccc1OCC#N` [II-a-1, 2-[4-(cyanomethoxy)-3-methoxyphenyl]-1-ethanaminium chloride], the chromatographic logP under setting [1] came to 0.1.
On the same count and under the same terms, the value for `CO/N=C(\C(=O)NCCc1ccc(OCC(C)C)c(OC)c1)c1ccc2c(c1)CCCC2` [Example 45] was 4.74; that for `COc1cc(CCNC(=O)OC(C)(C)C)ccc1OCC#N` [II-a*−1, tert-butyl 4-(cyanomethoxy)-3-methoxyphenethylcarbamate] was 2.51.
Under setting [4], `CCCCOc1ccc(CCNC(=O)/C(=N\OC)c2ccc3c(c2)CCCC3)cc1OC` [Example 49] yielded a logP of 4.40.
`CCc1ccc(/C(=N/OC)C(=O)NCCc2ccc(OC(C)C)c(OC)c2)cc1` [Example 60] showed a chromatographic logP under setting [1] of 3.54.
Consider `C=CCOc1ccc(CCNC(=O)/C(=N\OC)c2ccc(Br)cc2)cc1OC` [Example 115], for which the chromatographic logP runs as follows: under setting [2], 3.33; under setting [3], 3.6.
Compound `COCCOc1ccc(CCNC(=O)/C(=N/OC)c2ccc3c(c2)CCCC3)cc1OC` [Example 107] had a chromatographic logP under setting [1] of 3.25.

These data come from patent publication US6787670B1, “Glyoxyl acid amides, method for producing them and their use for controlling harmful organisms” (priority 1999, dated 2004).
